# Test system: Salmonella typhimurium (TA98, TA100, TA1535, and TA1537) and Escherichia coli (WP2uvrA)
# Experiment: Ames test (bacterial reverse-mutation test)
# Settings: in vitro
smiles,measurement,value
"Cn1cnc(Cn2c(=O)[nH]/c(=N\c3cc4cn(C)nc4cc3Cl)n(Cc3cc(F)c(F)cc3F)c2=O)n1 [Compound 3, (6E)-6-[(6-Chloro-2-methyl-2H-indazol-5-yl)imino]-3-[(1-methyl-1H-1,2,4-triazol-3-yl)methyl]-1-(2,4,5-trifluorobenzyl)-1,3,5-triazinane-2,4-dione]",mutagenicity,no safety concerns

# Reference: publication PMC8982737, “Discovery of S-217622, a Noncovalent Oral SARS-CoV-2 3CL Protease Inhibitor Clinical Candidate for Treating COVID-19” (Journal of Medicinal Chemistry, 2022)
